In paper PMC6919601, “Identification of Plasmodium dipeptidyl aminopeptidase allosteric inhibitors by high throughput screening” (PLoS ONE, 2019):
In all, about 110,000 compounds went through this assay and about 230 (0.21%) showed an effect of 50% or more. The list shows a part of the results.

biological target: DPAP1 (Plasmodium falciparum, UniProt Q8IIJ9); assay: primary screen, percent inhibition; read by cleavage of a fluorogenic dipeptide substrate; higher = more effect of the substance; set-up: species or system P. falciparum D10 trophozoite lysates; single well
Sequence (Q8IIJ9 whole entry, looked up): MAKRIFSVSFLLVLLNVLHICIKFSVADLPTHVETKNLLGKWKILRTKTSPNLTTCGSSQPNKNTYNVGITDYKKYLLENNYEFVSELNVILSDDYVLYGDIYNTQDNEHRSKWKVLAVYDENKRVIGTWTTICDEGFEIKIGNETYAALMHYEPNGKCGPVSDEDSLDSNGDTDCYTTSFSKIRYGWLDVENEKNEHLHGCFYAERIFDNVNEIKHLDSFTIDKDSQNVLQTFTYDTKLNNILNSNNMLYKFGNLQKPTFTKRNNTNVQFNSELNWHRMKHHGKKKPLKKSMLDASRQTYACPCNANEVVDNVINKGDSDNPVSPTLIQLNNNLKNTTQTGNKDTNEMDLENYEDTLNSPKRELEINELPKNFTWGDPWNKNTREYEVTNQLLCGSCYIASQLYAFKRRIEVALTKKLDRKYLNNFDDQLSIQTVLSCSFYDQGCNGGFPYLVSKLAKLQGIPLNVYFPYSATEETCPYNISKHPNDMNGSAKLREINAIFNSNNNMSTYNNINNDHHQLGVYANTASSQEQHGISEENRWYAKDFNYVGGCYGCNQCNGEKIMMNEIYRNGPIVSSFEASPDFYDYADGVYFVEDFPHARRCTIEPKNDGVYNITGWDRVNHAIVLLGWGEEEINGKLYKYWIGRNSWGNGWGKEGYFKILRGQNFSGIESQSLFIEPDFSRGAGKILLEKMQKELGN
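Note: 30 min substrate incubation versus DMSO and 10 µM JCP410 controls.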

Row | Compound | % Inhibition @ 10 uM [%]
1 | CC(C)(C)NC(=O)C1CCC(CNS(=O)(=O)c2cccc3nsnc23)CC1 (centres unmarked) | -8.02
2 | O=C(c1cccc(Br)c1)N1CCN(S(=O)(=O)N2CCCCC2)CC1 | -2.05
3 | c1ccc(-c2ccc(-c3[nH]c(-c4c[nH]c5ccccc45)nc3-c3ccccc3)cc2)cc1 | -0.274
4 | CC(C)OCCCNC(=O)c1nnc(-c2cccc(Cl)c2)o1 | -0.602
5 | O=C(Nc1cccnc1Cl)C1CC(c2ccc(F)cc2)=NO1 (centres unmarked) | 1.62
6 | Cc1cc(C)cc(NC(=O)C2CCN(S(C)(=O)=O)CC2)c1 | 2.13
7 | CC(=O)Nc1ccc2nc(SCC(=O)Nc3ccccc3)sc2c1 | 0.983
8 | COc1ccc2cc3c(NC(=O)COc4cccc(C)c4)[nH]nc3nc2c1 | 8.81
9 | CCc1ccc(CNCc2cccs2)cc1 | -4.67
10 | Cc1ccccc1-c1nc(CS(=O)CC(=O)NC(C)C)c(C)o1 (centres unmarked) | -1.05
11 | CC(=O)c1cnc(Nc2nc(-c3ccccc3)c3cc(Cl)ccc3n2)nc1C | -3.76
12 | COc1cccc(NC(=O)COc2cccc(C)c2)c1 | -6.67
13 | CCCCOc1ccccc1NC1=NS(=O)(=O)c2ccccc21 | 2.92
14 | Cc1ccc(-c2cc(C(=O)NCCCn3ccnc3)no2)cc1 | -3.33
15 | OC(COc1ccc(C23CC4CC(CC(C4)C2)C3)cc1)CN1CCOCC1 (centres unmarked) | 0.878
16 | CCCC1Nc2ccc(C(=O)O)cc2C2C=CCC12 (centres unmarked) | 11
17 | CCC(=O)N(CCc1ccccc1)C1CC(=O)N(c2ccccc2)C1=O (centres unmarked) | 3.8
18 | Cc1ccc(S(=O)(=O)c2c(O)nc3cc(C(=O)N4CCOCC4)ccc3c2O)cc1 | -0.264
19 | COc1ccc(NC(=O)c2sc3nc4c(cc3c2N)CCCC4)cc1OC | 3.24
20 | CSC1=NSC2=NC(=O)/C(=C\c3cc(C)n(Cc4ccccc4)c3C)C(=N)N12 | 3.48
21 | CCOc1c(OC)cccc1C1CC(=O)Nc2c1c(=O)n(C)c(=O)n2C (centres unmarked) | -4.81

Row | Compound | % Inhibition @ 10 uM [%]
22 | O=C1OC(c2cccc(Br)c2)=N/C1=C\c1cccnc1 | -0.0894
23 | O=c1/c(=C\c2ccccc2)sc2nc(-c3ccccc3Cl)nn12 | 0.128
24 | CC(C)Oc1ccc(OCCSc2nc3c(N)ncnc3[nH]2)cc1 | 2.37
25 | Cc1nc2ncnn2c(C)c1CCC(=O)NCCC1=CCCCC1 | -2.25
26 | Cc1ccc(C2CC(=O)c3cnc4c(-c5ccccc5)c(C)nn4c3C2)cc1 (centres unmarked) | -9.16
27 | CC(C)C[C@H](NC(=O)OC(c1ccccc1)c1cccc(C(F)(F)F)c1)C(=O)NCC#N (some centres unmarked) | 1.71
28 | CC(=O)c1ccc(NC(=O)CC2COc3ccccc3O2)cc1 (centres unmarked) | 0.381
29 | Cc1nc2ccc(S(=O)(=O)NC(CC(C)C)C(=O)NCCC3=CCCCC3)cc2s1 (centres unmarked) | -4.97
30 | Cc1cccc(C2=N/C(=C/c3cccc(Br)c3)C(=O)O2)c1 | 2.92
31 | Nc1ccccc1Nc1nc(OC(C(F)(F)F)C(F)(F)F)nc(OC(C(F)(F)F)C(F)(F)F)n1 | 4.89
32 | CCOc1cccc(C(=O)Nc2ccc(NC(=O)c3ccccc3Br)cc2)c1 | 0.36
33 | CC1=NN(C(=O)c2ccc(OC(F)F)cc2)C(O)(C(F)(F)F)C1 (centres unmarked) | 6.37
34 | CC(C)(C)S(=O)(=O)c1ccsc1S(C)(=O)=O | -5.5
35 | CCc1ccc(Oc2nc3ccccn3c(=O)c2/C=C(\C#N)C(=O)NCCCOC)cc1 | 1.19
36 | Cc1cc(C)n(-c2nnc(C)n2/N=C/c2ccc(-c3cccc(Cl)c3)o2)n1 | 2.56
37 | Cc1ccc(-c2cc(C(F)F)n3ncc(C(=O)NCCN4CCOCC4)c3n2)cc1 | 4.08
38 | O=C(NC1CCc2ccccc21)C1CCCN(S(=O)(=O)c2ccc(Cl)cc2)C1 (centres unmarked) | -1.07
39 | CC(=O)N1N=C(c2ccc(Br)cc2)OC1c1ccc(F)cc1 (centres unmarked) | 2.96
40 | C=CCN1C(=O)C(C(=O)N2CCOCC2)C2CC1(C)Oc1ccccc12 (centres unmarked) | -5.34
41 | O=C(Cc1cccc2ccccc12)Nc1c(-c2ccccc2)nc2ccccn12 | 6.64
42 | CCOC(=O)N1CCN(c2c(NCCN3CCCC3)c(=O)c2=O)CC1 | 0.277

Row | Compound | % Inhibition @ 10 uM [%]
43 | O=C(NCc1ccco1)c1nc(-c2ccc(-n3cccc3)cc2)no1 | -4.42
44 | COc1cccc(CNC(=O)C2CCN(S(=O)(=O)c3ccc(Br)s3)CC2)c1 | -0.668
45 | Cc1ccc(S(=O)(=O)N2CC=C(c3c(C)[nH]c4ccccc34)CC2)cc1 | 2.34
46 | O=C(Nc1ccc(F)cc1)N1CCN(c2cccc(C(F)(F)F)c2)CC1 | -3.04
47 | COc1cccc2cc(-c3nc(C)no3)c(=O)oc12 | 4.16
48 | CCOc1ccccc1N(CC(=O)Nc1ccc(OC)c(Cl)c1)S(C)(=O)=O | -2.66
49 | CC1CCN(CCCNC(=O)C2CCC(CNS(=O)(=O)c3ccccc3)CC2)CC1 (centres unmarked) | 2.35
50 | Cc1ccccc1-c1nnc2sc(NC(=O)CCc3ccccc3)nn12 | 4.46
51 | Cc1ccc(Cn2c(OCc3nc(N)nc(N4CCOCC4)n3)nc3c2c(=O)n(C)c(=O)n3C)cc1 | 3.81
52 | CC(=O)N1CCN(c2ccc(NCc3ccc(OCc4cccs4)cc3)cc2)CC1 | 4.08
53 | Cc1cccc(NC(=O)c2ccc3cc(C(=O)Nc4cccc(C)n4)ccc3c2)n1 | -3.12
54 | NC(=O)C(=O)Nc1cccc(Cl)c1Cl | -5.42
55 | CCN1C(=O)/C(=C2/CCCN2C)c2ccccc21 | -3.16
56 | CCCN(CCC)S(=O)(=O)c1ccc(-c2ccc(O)nn2)s1 | 5.07
57 | CN(C)CP(=O)(O)CCN1CCCC1=O | 3.25
58 | COc1ccc(C)cc1N(CC(=O)N1CCOCC1)S(=O)(=O)c1ccc(C)cc1 | 1.15
59 | CNc1nc(Nc2ccccc2C#N)nc(N(C)C)n1 | -2.77
60 | Oc1c(C(c2ccc(C(F)(F)F)cc2)N2CCCC2)ccc2cccnc12 (centres unmarked) | -1.52
61 | COCCNC(=O)/C(C#N)=C/c1c(Oc2cccc(C)c2C)nc2ccccn2c1=O | 2
62 | CCc1ccc(/C=C2/SC(=S)NC2=O)cc1 | -0.0494
